Several values for one entry are separate records, joined by “and”; a condition that tells them apart may be missing. Identical values can stand only once. The whole screen tested about 16,000 compounds, of which about 40 (0.2%) were called active. Another 1% or so got no clear call; they are omitted. Calls come from the whole dose curve; as a rule, active = well fitted activation curve with a large enough effect; inconclusive = small, poorly fitted or top-dose-only effect, or another doubt; inactive = no such curve, though single readings can be large or run the other way. The list shows a part of the results.
The compounds below were run against Rap guanine nucleotide exchange factor 4 (Homo sapiens) (UniProt Q8WZA2) (assay: Validation qHTS for agonist of cAMP-regulated guanine nucleotide exchange factor 4 (EPAC2)). Conditions: EPAC2 Rap1B BODIPY-GDP exchange, fluorescence; activation: active compounds read high.
Chain of UniProt Q8WZA2 (Q8WZA2 whole entry, looked up): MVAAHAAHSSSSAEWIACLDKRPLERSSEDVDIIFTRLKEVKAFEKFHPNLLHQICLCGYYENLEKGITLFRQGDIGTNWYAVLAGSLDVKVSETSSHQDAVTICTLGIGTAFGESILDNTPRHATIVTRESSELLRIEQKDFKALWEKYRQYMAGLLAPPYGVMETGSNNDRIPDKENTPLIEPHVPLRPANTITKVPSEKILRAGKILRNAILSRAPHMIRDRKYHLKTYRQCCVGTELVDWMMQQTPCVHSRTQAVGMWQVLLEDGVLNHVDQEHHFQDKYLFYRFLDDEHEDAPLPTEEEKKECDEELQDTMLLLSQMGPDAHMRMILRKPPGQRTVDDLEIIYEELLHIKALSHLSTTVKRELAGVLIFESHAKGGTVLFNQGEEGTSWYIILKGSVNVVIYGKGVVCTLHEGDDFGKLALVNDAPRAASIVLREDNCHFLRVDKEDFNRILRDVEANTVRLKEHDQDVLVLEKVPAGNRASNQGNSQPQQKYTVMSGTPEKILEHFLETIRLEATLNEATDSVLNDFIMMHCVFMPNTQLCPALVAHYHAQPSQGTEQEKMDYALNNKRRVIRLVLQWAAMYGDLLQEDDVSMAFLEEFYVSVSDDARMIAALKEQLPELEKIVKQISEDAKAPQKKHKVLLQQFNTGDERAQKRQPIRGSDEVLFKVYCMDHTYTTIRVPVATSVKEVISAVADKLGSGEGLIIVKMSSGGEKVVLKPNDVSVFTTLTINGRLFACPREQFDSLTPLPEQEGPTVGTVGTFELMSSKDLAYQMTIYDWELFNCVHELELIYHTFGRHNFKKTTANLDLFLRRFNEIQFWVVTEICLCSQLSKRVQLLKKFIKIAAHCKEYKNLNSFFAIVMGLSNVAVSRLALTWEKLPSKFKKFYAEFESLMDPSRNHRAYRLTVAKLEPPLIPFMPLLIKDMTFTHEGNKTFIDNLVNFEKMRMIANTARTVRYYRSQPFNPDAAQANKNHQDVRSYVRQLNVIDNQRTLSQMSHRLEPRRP
Summary of the method: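 Fluorescent exchange assay: 100 nM EPAC2 with 250 nM RAP1B-BODIPY-GDP and 50 uM GDP; compound added, 5 min at room temperature, then read (ex 480/em 540 nm) every 5 min for 30 min. Normalized to 6.5 mM cAMP agonist control.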
% is set by controls: 0 for no effect and ±100 for the full control effect.
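Note: exchange makes BODIPY-GDP fluorescence drop when released from Rap1B; series mostly up to about 150 µM.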

activation, inactive:
Cc1c(CCO)sc[n+]1CCc1ccccc1 -25.9%, CN(C)c1ncc2nc(-c3ccc(F)cc3)c(=O)n(C3CC3)c2n1 -23%, CC(C)CCCC(C)C1CCC2C3CC[C@H]4CC(=O)CC[C@@]4(C)C3CC[C@@]12C (some centres undefined) -12.9%, C1=CC2C3C=CC(C3)C2C1 (centres undefined) -15.1%, Fc1ccc(/C=C/c2ccc3ccccc3n2)cc1 -4.16%, CCCCCCCCN1[C@@H](CC(=O)O)c2ccc(/C=C/C(=O)O)cc2S1(=O)=O -5.07%, O=c1cc(-c2ccccc2)oc2cc(O)c(O)c(O)c12 -17.2% and -14.2% and 2.43%, COc1ccc(-c2oc3cc(OC)ccc3c(=O)c2O)cc1 0.775%, CC(NC(=O)c1ccco1)c1nnc2n1CCN(Cc1ccc(Cl)cc1)CC2 (centres undefined) -6.18%, CC(C)CCCC(C)N (centres undefined) -16.9%, COc1ccc2c(c1)-c1nc(-n3ncc(C(=O)N(C)CC4CCCN(C)C4)c3C)ncc1CC2 (centres undefined) -16.8%, CNC(C)C1CC[C@H](N)[C@@H](OC2C(N)C[C@H](N)[C@@H](OC3OC[C@](C)(O)C(NC)[C@H]3O)C2O)O1 (some centres undefined) -18.5%, CC1CN(CC(=O)NCCC2COc3ccccc3O2)Cc2cc(Cl)ccc2O1 (centres undefined) 8.09%, CN(C)CCn1nnnc1SCC1=C(C(=O)O)N2C(=O)[C@@H](NC(=O)Cc3csc(N)n3)[C@H]2SC1 -10%, N[C@@H](CCCC(=O)O)C(=O)O 7.12%, CC(C)CCCC(C)C1CCC2C3C(=O)C=C4CC(O)CC[C@@]4(C)C3CC[C@@]12C (some centres undefined) -16%, CS(=O)(=O)N1CCC[C@@]2(CCN(c3ccccn3)C2)C1 -17.6%, O=C(Nc1cccc(F)c1)N1CCC2(CC1)CCN(S(=O)(=O)c1ccccc1)CC2 -23.6%, COC(=O)C[C@H]1c2cc(F)ccc2S(=O)(=O)N1c1ccccc1 -18.7%, O=c1[nH]c2cc(C(F)(F)F)ccc2n1-c1cc(C(F)(F)F)ccc1O -13.7% and -61.4%, O=C(c1ccncc1)N1CCC2(CCN(Cc3nccs3)CC2)CC1 8.91%, COc1ccc(-n2c(=O)c(-c3ccccc3)nc3cnc(N4CCOCC4)nc32)cc1 -10.3%, CN1CCCC(CNC(=O)c2cnn(-c3nccc(-c4cccs4)n3)c2C2CC2)C1 (centres undefined) -5.36%, OC(c1cccnc1)c1ccc2c(c1)CN(Cc1cccc3c1OCO3)CCO2 (centres undefined) 2.08%, CCC1COCCS(=O)(=O)N1Cc1cccc(Cl)c1 (centres undefined) -36.6%, O=C(c1ccco1)N1CCC2(CC1)CN(c1ncccn1)C2 0.981%, COc1ccc(CNc2ncncc2-c2ccoc2)c(OC)c1 -19.3%, COc1cc(-c2cccc(OC)c2OC)cc2c1OCCN(Cc1cn[nH]c1-c1ccc(Cl)cc1)C2 2.87%, NCc1ccccc1Sc1ccccc1CO 2.75%, CS(=O)(=O)Nc1cccc(-c2nc(NCc3cccnc3)c3ccccc3n2)c1 -5.23%, COc1ccc(C(=O)NCc2nc(-c3cccc(NC(=O)c4ccc(C)s4)c3)oc2C)cc1 9.85%, CC(=O)N[C@@H](CS)C(=O)O -4.62% and 14.5%, COCCNc1ncnc2ccc(-c3cccc(NS(C)(=O)=O)c3)cc12 -21.3%, N[C@@H](Cc1cc(I)c(Oc2ccc(O)cc2)c(I)c1)C(=O)O 1.88%, Nc1c(NC/C=C\COc2cc(CN3CCCCC3)ccn2)c(=O)c1=O 11.4%, CC(=O)O[C@H]1C[C@@]2(C)[C@@H](C[C@@H](O)[C@H]3[C@@]4(C)CC[C@@H](O)[C@@H](C)[C@@H]4CC[C@@]32C)/C1=C(\CCC=C(C)C)C(=O)O -7.02%, FC(F)(F)c1ccccc1-c1nc(NC2CC2)c2ccccc2n1 -12.5%, CN(C)c1ncc2nc(CCc3ccccc3)c(=O)n(CCc3ccccc3)c2n1 -8.28%, N#Cc1ccc(CN2CCCC3(CCN(C(=O)c4ccco4)CC3)C2)cc1 -3.5%, COc1ccc(-c2nc3cc(C)ccc3cc2CN(C(=O)c2cccs2)C2CC2)cc1OC 6.87%, O=c1cc(-c2ccccc2)[nH]c2nc(Cl)ccc12 -28.3%, O=c1[nH]c(=O)c2nc3ccccc3nc2[nH]1 8.09%, N#Cc1cccc(NC(=O)N2CC[C@@]3(CCCN(C(=O)c4cc(C(F)(F)F)cc(C(F)(F)F)c4)C3)C2)c1 -21.7%, N#C/C(=C\c1ccc(O)c(O)c1)C(=O)NCCc1ccccc1 -39.6%, Cn1c(C2CCC2)nc2cc(C(=O)N3CCOc4ccccc4C3)cc(NC(=O)C3CCCO3)c21 (centres undefined) -1.67%, O=C(Nc1ccccc1)[C@@H]1CC=C[C@@H]2CCN(C3CC3)C(=O)[C@@H]21 -25%, O=C(c1ccc2c(c1)OCO2)N(Cc1cc2ccc(F)cc2nc1N1CCC(O)CC1)CC1CCCO1 (centres undefined) 1.41%, CCCCC(=O)OCC(=O)[C@]1(O)Cc2c(O)c3c(c(O)c2[C@@H](O[C@H]2C[C@H](NC(=O)C(F)(F)F)[C@H](O)[C@H](C)O2)C1)C(=O)c1c(OC)cccc1C3=O -1%, N#Cc1ccc(CN2CC[C@@]3(CCCN(S(=O)(=O)c4ccccc4)C3)C2)cc1 3.9%, CCC(=O)OC(OP(=O)(CCCCc1ccccc1)CC(=O)N1C[C@H](C2CCCCC2)C[C@H]1C(=O)O)C(C)C (some centres undefined) -17.1%, Clc1ccc2c(c1)N=C(N1CCNCC1)c1ccccc1N2 -13.9% and -1.77% and -33.6%, CC(=O)OC/C=C(C)/C=C/C=C(C)/C=C/C1=C(C)CCCC1(C)C -2.77% and -41.8% and 0.24%, O=C(c1cccc(F)c1F)N1CCOc2ccc(CN3CCN(Cc4ccccn4)CC3)cc2C1 2.67%, COc1ccccc1N(C)C -18.8%, O=c1c(-c2cccc(F)c2)nc2cncnc2n1-c1ccccc1 0.553%, COc1ccccc1N1CCN(c2nc(CNC(=O)c3ccccc3F)nc3ccccc23)CC1 -0.723%, CCCCCCCCCCCCCCCCCC(=O)O -5.89%, O=C1NC(=O)/C(=C/c2ccc(-c3ccc(F)cc3O)o2)S1 -58.7%, Nc1ncnc2c1ncn2C1OC(CO)C(O)C1O (centres undefined) -3.95% and -8.08%, O=C(Nc1ccccc1)N1CCC2(CC1)CCN(C(=O)c1cccc(F)c1)CC2 -8.98%, CC(C)c1ccc2c(c1)CCC1C(C)(C(N)=O)CCCC21C (centres undefined) -20.1%, CCCn1c(=O)c2[nH]c(-c3ccccc3)nc2n(CCC)c1=O 10.1% and 5.28%, CCC(c1ccc(O)cc1)C(CC)c1ccc(O)cc1 (centres undefined) 0.614%, NC1(c2ccc(-c3nc4ccn5c(=O)[nH]nc5c4cc3-c3ccccc3)cc2)CCC1 -8.43%, COc1cc(OC)c2c(=O)c(OC)c(-c3ccc(OC)c(OC)c3)oc2c1 -10.1%, CN1C2CC(OC(=O)C(CO)c3ccccc3)C[C@@H]1[C@H]1OC21 (some centres undefined) -11.6%, COc1ccccc1CNc1ncncc1-c1ccccc1OC -20.4%, O=C(NCc1nnc2n1CCN(Cc1ccnc3ccccc13)CC2)c1cccc(F)c1 -24.5%, Cc1ccccc1/C=C/C1=NCCN1 -35.9%, CCCCCCC(=O)O[C@H]1CC[C@H]2[C@@H]3CCc4cc(O)ccc4[C@H]3CC[C@]12C -17.6%, O=C(Nc1cccc(F)c1)N1CCC2(CC1)CCN(C(=O)c1ccncc1)CC2 -13.9%, CNc1ncnc2ccc(-c3ccc4c(c3)OCO4)cc12 -11.8%, COc1ccc(CN2CCCC(n3cc(C(=O)N4CCCCC4)nn3)C2)c(OC)c1C (centres undefined) -3.21%, CC(NC(=O)C1CCOCC1)c1nnc2n1CCN(Cc1ccc3ccccc3c1)CC2 (centres undefined) -12.1%, CCC1(C2CCN(Cc3c(C)[nH]c4ccccc34)CC2)NC(=O)N(Cc2ccc3c(c2)OCO3)C1=O (centres undefined) -6.63%, COc1ccccc1-c1ccnc(-n2ncc(C(=O)NCCc3cccnc3)c2C)n1 3.96%, CC(C)Oc1cccc(-n2c(CCc3c[nH]c4ccc(Br)cc34)nc3ccccc3c2=O)c1 7.36%, Cc1cccc(-c2[nH]c(C(C)(C)C)nc2-c2ccc3nccnc3c2)n1 -37.6%, COc1ccc(O)c(CN2CCC3(CCC(CNC(=O)c4ccccc4)O3)CC2)c1 (centres undefined) -3.96%, CC[C@@]1(O)C(=O)OCc2c1cc1n(c2=O)Cc2cc3cc(O)ccc3nc2-1 -2.34% and 12.4%, COCCn1c(=O)c(-c2cccs2)nc2cnc(Oc3ccccc3)nc21 -1.42%, COc1ccc(CCN(C)CCc2ccc(OC)c(OC)c2)cc1OC -10.3% [middle of 4 runs], CC1(CN2CCC(n3c(=O)[nH]c4ccccc43)CC2)OCc2ccccc2-n2cccc21 (centres undefined) -4.89%, CC(CCc1ccc(O)cc1)N1CCOc2c(O)cc(-c3nc4ccccc4s3)cc2C1 (centres undefined) -4.76%
